Measurements from ChEMBL document CHEMBL4888484, “Replenishing the malaria drug discovery pipeline: Screening and hit evaluation of the MMV Hit Generation Library 1 (HGL1) against asexual blood stage Plasmodium falciparum ,using a nano luciferase reporter read-out” (2022).
The whole screen tested about 150,000 compounds, of which about 540 (0.36%) showed an effect of 50% or more. This is one part of the list.

What follows are compounds tested on Plasmodium falciparum (assay: Primary screen in NF54 nanoGlo assay, in single point, at 2uM, 72h; a lower Z score goes with more inhibition). Details: timepoint 72 hour.
Format: functional, Erythrocyte

| SMILES | % Inhibition [%] | Z score |
| --- | --- | --- |
| CCC(CC)C1CC(NC(=O)NCC2COCO2)CCO1 (stereo unspecified) | -9 | 1.17 |
| CCCc1nc2ccccc2n1[C@@H](CC)C(=O)N1CCN(c2nc[nH]n2)CC1 | 7 | -1.26 |
| C[C@]1(CO)CCCN(Cc2cc(-c3ncccn3)ccc2OCC(=O)O)C1 | 6 | -0.87 |
| C[C@]1(Cc2cccs2)CCCN1C(=O)Cn1nnc2c1CCCC2 | -11 | 1.37 |
| CC(C)Cc1ccc(CN2CCN3C(=O)OC[C@H]3C2)s1 | -8 | 1.17 |
| CN(Cc1ncc[nH]1)C(=O)c1nc2c(s1)CCC2 | -4 | 0.63 |
| CCC1(O)CN(C(=O)C2CC(F)(F)C2)C1 | -1 | 0.08 |
| COc1cccc(-c2cc(C(=O)NCC(C)(C)CNC(=O)c3cc(-c4cccc(OC)c4)nc4ccccc34)c3ccccc3n2)c1 | 0 | 0.02 |
| Cn1cccc1C(=O)CN1C(=O)NC2(CCCC2)C1=O | 10 | -1.13 |
| Cc1cccc(Cl)c1CC(=O)NS(=O)(=O)CC(C)C | 4 | -0.64 |
| CN(C(=O)Cc1cnc2ccccc2c1)c1ccc(N2CCOCC2)nc1 | -4 | 0.56 |
| O=C(NC[C@H]1CCCN(C(=O)C2(c3cccc(F)c3)CCC2)C1)c1ccccc1 | 0 | 0.02 |
| Cc1ccoc1C(=O)NC[C@H]1CCN(C/C=C/c2ccccc2)C1 | -7 | 0.63 |
| O[C@H](Cc1ccccc1)Cn1ccnn1 | -1 | 0.17 |
| O=C(c1ccc(S(=O)(=O)N2CCOCC2)cc1)N1CCC[C@H]1c1nnc2ccccn12 | -2 | 0.35 |
| CC(C(=O)NCCN1CCCC1)N1C(=O)c2ccccc2C1c1cn(C)c2ccccc12 (stereo unspecified) | 29 | -3.93 |
| C[C@H](NC(=O)C1COc2ccccc2O1)C(=O)Nc1nc2ccccc2[nH]1 (stereo partly specified) | -4 | 0.63 |
| Cc1ccc(-n2ncc3c(C)nn(C)c(=O)c32)c(C)c1 | 9 | -1.18 |
| CC(OCC1CCCO1)c1nc(-c2[nH]nnc2-c2ccccc2)no1 (stereo unspecified) | -23 | 4.77 |
| Fc1cccc2c(N3CCC(c4ccn[nH]4)CC3)ncnc12 | -7 | 0.92 |
| N#Cc1cc(N2CCC3C(CCCN3Cc3ccccc3)C2)ncn1 (stereo unspecified) | -1 | 0.19 |

| SMILES | % Inhibition [%] | Z score |
| --- | --- | --- |
| CCn1ncnc1CNC1(c2ccc(Cl)c(Cl)c2)CC1 | -20 | 2.53 |
| Cc1cc(OC2CN(C(=O)c3cc4ccccc4[nH]3)C2)n2ncnc2n1 | 18 | -2.33 |
| CC(C)CN1C(=O)CC[C@@H](C(=O)NCCc2cccs2)[C@@H]1c1cccnc1 | 30 | -3.43 |
| CCCCOc1ccc([C@H]2C(=O)N(C3CCCCC3)CC(=O)N2C2CCCCC2)cc1 | 2 | -0.3 |
| CCC(=O)N1CCc2cc3cccc(C)c3nc21 | -3 | 0.36 |
| O=C(Cc1cccs1)N[C@@H](CN1C(=O)COC1=O)c1ccccc1 | -10 | 1.55 |
| CNc1ncc(C(=O)Nc2ccc(N3CCOCC3)cc2)s1 | -14 | 2.09 |
| Cc1cnc(C(=O)Nc2nc3cc4c(cc3s2)OCCCO4)cn1 | -12 | 1.53 |
| COc1ccc(F)cc1S(=O)(=O)N1CC[C@H](c2cccs2)C1 | -7 | 1.24 |
| CNc1ncccc1C(=O)N1CC[C@]2(OC)CC[C@@H](O)C[C@H]12 | -9 | 1.59 |
| COc1ccccc1-c1ccc(C(=O)N2CCC(N3CCC[C@H](CO)C3)CC2)c(N2CCN(c3ccccc3F)CC2)n1 | 1 | -0.26 |
| COc1cc(Cl)c(C)cc1NS(=O)(=O)c1cc(-c2ccc(=O)[nH]n2)ccc1C | -27 | 2.37 |
| Cc1nc[nH]c1C(=O)N1CCn2nc(CN3CCCCCCC3)cc2C1 | -3 | 0.59 |
| Nc1nc2c(c(-c3cccnc3)n1)CN(C(=O)[C@H]1CCOC1)C2 | -13 | 1.68 |
| CC(C)(C(=O)Nc1ccc2c(c1)OCO2)N(Cc1ccc(F)cc1)C(=O)Cc1ccccc1 | -3 | 0.32 |
| c1ccc(CCc2noc([C@H]3CCn4cncc4C3)n2)cc1 | 2 | -0.27 |
| Cc1cc(=O)n2c(n1)N(S(=O)(=O)c1cc(F)cc(F)c1)CC2 | 1 | -0.1 |
| CC(C)(C)C(=O)Nc1ccc(-c2ccc(OCCF)cn2)cn1 | 10 | -1.12 |
| COc1ccsc1S(=O)(=O)N1CCC(N2CCc3cc(F)ccc32)CC1 | -16 | 3.12 |
| CC(C)Oc1ccc(-c2nc(C(=O)OCCc3cnn(C)c3)cs2)cc1 | -4 | 0.53 |
| CC(=O)N1CCC(S(=O)(=O)NCCOc2ccc(C)cc2)CC1 | 0 | -0.01 |

| SMILES | % Inhibition [%] | Z score |
| --- | --- | --- |
| CC(=O)N1CCN(C(=O)[C@H]2C[C@@H]2c2ccncc2)C(C)(C)C1 | 4 | -0.42 |
| Cc1nc2ncnn2c(O)c1NC(=O)c1c(-c2ccccc2Cl)noc1C | 30 | -3.41 |
| CN(CCN1CCCCC1=O)Cc1ccc(CN2CCCC2)s1 | -12 | 2.24 |
| Cc1noc2ncnc(N3CCC[C@H]3C3CCC3)c12 | -5 | 0.46 |
| COc1ccccc1OCCN1C[C@@H](C(=O)Nc2nccs2)CC1=O | -4 | 0.44 |
| C[C@@H](c1ccccc1)N(Cc1nc(C(=O)NCc2ccccc2)co1)Cc1ccc(Cl)cc1Cl | -5 | 0.95 |
| c1ccc(-c2nc(N3CCn4cnnc4C3)no2)cc1 | -13 | 2.08 |
| Cc1cc(C)n(C2CN(C(=O)c3cnnn3-c3ccccc3)C2)n1 | 0 | 0 |
| Cc1nc(-c2cccc(NC(=O)N(C)CC3(CO)CCOCC3)c2)cs1 | -15 | 1.43 |
| N#CC1CN(C(=O)[C@H]2CCCO2)CCN1C(=O)[C@H]1CCCO1 (stereo partly specified) | 8 | -1.25 |
| CC(C)(C)c1nnc(NCCCN2CCOCC2)[nH]c1=O | 12 | -1.9 |
| O=C1C[C@@H](C(=O)Nc2ccc(Oc3ccccc3)cc2)n2ncnc2N1 | 4 | -0.62 |
| CCOC(=O)C1CCN(C(=O)[C@H](CC)N(c2nc(-c3ccc(OC)cc3)cs2)c2ccccc2Cl)CC1 | -6 | 0.68 |
| O=C1N(c2ccccc2)Cc2nn(C3CCCC3)c(=O)n21 | -16 | 2.05 |
| Cn1cc(C(=O)NC2CCN(C[C@H]3CCCO3)CC2)c(=O)c2ccccc21 | -2 | 0.35 |
| CC(C)n1cnc2cc(CNC(=O)c3ccco3)ccc21 | -22 | 2.14 |
| COc1ccccc1N(C)CCCS(=O)(=O)N(C)C | -3 | 0.35 |
| Cc1ccc(NC(=O)NCCn2c(-c3ccccc3)nc3cccnc32)c(C)c1 | 7 | -1.24 |
| CC1(C)[C@@H]2CCC13CS(=O)(=O)N(CC(=O)Nc1ccc(N4CCOCC4)cc1)[C@H]3C2 | -5 | 0.66 |
| CCC1C(=O)NCCN1C(=O)C1CC12CCc1ccccc12 (stereo unspecified) | -1 | 0.18 |
| C#CCN(C(=O)c1ccc(N2CCCC2)nc1)C1CCCCC1 | -18 | 2.33 |

| SMILES | % Inhibition [%] | Z score |
| --- | --- | --- |
| Nc1nnnn1CC(=O)N1CC[C@H]1c1ccc(F)cc1 | -1 | 0.13 |
| CCCc1cc(C(=O)N2CCC([C@H](Cc3ccc(F)cc3F)N(C)C(=O)c3cccnc3)CC2)no1 | -13 | 1.68 |
| C#CCN(Cc1ccco1)Cc1cn(C)nc1-c1ccccc1F | -5 | 0.76 |
| CCc1noc(NC(C)=O)c1-c1ccc(C)c(S(=O)(=O)NC2CCCCCC2)c1 | -7 | 0.98 |
| O=S(=O)(Cc1ccccc1)NCCn1nc(-c2cnccn2)cc1C1CC1 | 15 | -1.86 |
| CCOC(=O)N1CCC(NC(=O)c2c[nH]c3cc(C)nn3c2=O)CC1 | -3 | 0.52 |
| CN(Cc1cc(F)ccc1Br)C1CCN(c2ccccn2)CC1 | -3 | 0.31 |
| COc1cc(C(=O)NC[C@H]2CCCCN2C2CC2)ncn1 | -2 | 0.38 |
| CCOc1ccccc1OS(=O)(=O)c1cccc(C(=O)NC[C@H](c2ccc(N(C)C)cc2)c2c[nH]c3ccccc23)c1 | -13 | 2.05 |
| CCC=C(C)C(=O)NCc1ccc(C#N)cc1 | -6 | 0.57 |
| COCCNC(=O)c1ccc(Br)cc1O | -5 | 1.08 |
| Cc1ncsc1CNC(=O)[C@H]1CCc2ccccc2C1 | -7 | 0.91 |
| O=C(CC(=O)Nc1cc(Cl)cc2c1OCC2)NCC(F)(F)F | 30 | -3.4 |
| CCn1c([C@H]2CC(=O)N(C)C2)n[nH]c1=O | -17 | 2.98 |
| O=C1C[C@H](c2ccc(F)c(F)c2F)c2cnn(Cc3ccco3)c2N1 | -2 | 0.32 |
| O=C(O)C[C@@H]1CCN(Cc2ccccc2)C[C@@H]1Cc1nc2cnccc2[nH]1 | -6 | 0.96 |
| Cc1onc(C(=O)N2CCC3(CC2)CC[C@]3(C)O)c1Cn1cccn1 | 42 | -5.22 |
| CN1CCN(C(=O)CCOCC(F)(F)F)c2ccccc2C1 | -4 | 0.55 |
| CCC(C)CC(C)NC(=O)c1c[nH]c(C)cc1=O (stereo unspecified) | 34 | -3.81 |
| CS(=O)(=O)c1ccc(OCc2noc(-c3ccco3)n2)cc1 | -17 | 3.04 |
